For 153 variants, enrichment ratio results are on record in a collection of fitness landscapes (doi:10.1126/science.1257360).

B1: PhoQ; a variant is named by its letters at X, in order, P23837 (parent)
chain: MKKLLRLFFPLSLRVRFLLATAAVVLVLSLAYGMVALIGYSVSFDKTTFRLLRGESNLFYTLAKWENNKLHVELPENIDKQSPTMTLIYDENGQLLWAQRDVPWLMKMIQPDWLKSNGFHEIEADVNDTSLLLSGDHSIQQQLQEVREDDDDAEMTHSVAVNVYPATSRMPKLTIVVVDTIPVELKSSYMVWSWFIYVLSANLLLVIPLLWVAAWWSLRPIEALAKEVRELEEHNRELLNPATTRELTSLVRNLNRLLKSERERYDKYRTTLTDLTHSLKTPLXXLQXXLRSLRSEKMSVSDAEPVMLEQISRISQQIGYYLHRASMRGGTLLSRELHPVAPLLDNLTSALNKVYQRKGVNISLDISPEISFVGEQNDFVEVMGNVLDNACKYCLEFVEISARQTDEHLYIVVEDDGPGIPLSKREVIFDRGQRVDTLRPGQGVGLAVAREITEQYEGKIVAGESMLGGARMEVIFGRQHSAPKDE

The other results are listed elsewhere or left out. A value given as a limit tells only on which side of the number the result lay.

The variants in this assay derive from B1. As to the kind of experiment: enrichment ratio after two sorts for PhoP signalling (ratio (wild type AVST 3.29)); higher = more functional. To be noted: with PhoP (E. coli).
For the variant MRGL, the enrichment ratio came to 0.632. The same measure for EMNF: at most 0.25. The same measure for YCQY: at most 0.25; for RVRY: at most 0.25; for NLWL: at most 0.25. The same measure for HPLW: at most 0.25; for MLWY: at most 0.25; for SYRA: at most 0.25. Turning to MSSK, the enrichment ratio is at most 0.25. As for GQGR, the figure is at most 0.25; as for DQRE, at most 0.25. The same measure for PWLL: at most 0.25. The same measure for DLPM: at most 0.25; for FTYC: at most 0.25; for GNHH: at most 0.25. Consider DTLV, for which the enrichment ratio was at most 0.25.

As for WHVK, the enrichment ratio was at most 0.25.

For the variant SHWH, the enrichment ratio is at most 0.25. For the variant VFRE, the enrichment ratio is at most 0.25. The same measure for KYML: at most 0.25. The same measure for TIYH: at most 0.25; for IGMN: at most 0.25. The same measure for MCLY: at most 0.25; for EWTQ: at most 0.25. With NHKE, the enrichment ratio was at most 0.25. As for PKPF, the figure is at most 0.25; as for YRAG, at most 0.25.

As to WHFS, the enrichment ratio was at most 0.25. For the variant KYPN, the enrichment ratio is at most 0.25. For the variant FNQE, the enrichment ratio is at most 0.25. The same measure for EGLT: at most 0.25. Consider SVWK, for which the enrichment ratio is at most 0.25.

As to SVYE, the enrichment ratio was at most 0.25. YWVV: the enrichment ratio is at most 0.25. The same measure for ICIL: at most 0.25. As for ISRL, the figure is at most 0.25. The same measure for VSAQ: at most 0.25; for GWFC: at most 0.25.

Turning to NCNY, the enrichment ratio was at most 0.25. Take MCRM: the enrichment ratio was at most 0.25. Take AWRD: the enrichment ratio is at most 0.25.

On to ILQL, for which the enrichment ratio was at most 0.25. The same measure for EAPL: at most 0.25. The same measure for WKAI: at most 0.25. The same measure for NKIQ: at most 0.25; for WILP: at most 0.25; for VVAR: at most 0.25. Regarding PHMI, the enrichment ratio was at most 0.25. As for HPQY, the figure is at most 0.25; as for YCGW, at most 0.25; as for VWRD, at most 0.25. As for PAFL, the figure is at most 0.25. As for ISNA, the figure is at most 0.25.

FCPA: the enrichment ratio was at most 0.25. As for PYSL, the figure is at most 0.25; as for KNRH, at most 0.25. Regarding PRKF, the enrichment ratio was at most 0.25. The same measure for KAMP: at most 0.25; for DSDY: at most 0.25; for YDAF: at most 0.25.

Consider WAWS, for which the enrichment ratio was at most 0.25. The same measure for IKGC: at most 0.25; for SWPA: at most 0.25. As for EQWP, the figure is at most 0.25; as for NQSN, at most 0.25; as for LARA, at most 0.25. As for IRLT, the figure is at most 0.25.

On to DNWG, for which the enrichment ratio is at most 0.25. As for NGTI, the figure is at most 0.25; as for SFPM, at most 0.25. QGLT: the enrichment ratio turned out to be 7.33. As for IEKS, the figure is at most 0.25; as for TTGR, at most 0.25. The same measure for SDVA: at most 0.25; for KRTI: at most 0.25. As for YHLY, the figure is at most 0.25; as for CICV, 0.57; as for ALFW, at most 0.25. PIPT: the enrichment ratio was at most 0.25. As for SAKW, the figure is at most 0.25; as for STCD, 6.22. As for EMTP, the figure is at most 0.25. As for MGYA, the figure is at most 0.25; as for NASN, at most 0.25. In the case of PPRI, the enrichment ratio was at most 0.25. As for QMEW, the figure is at most 0.25. As for NTKM, the enrichment ratio is at most 0.25. The same measure for TWRM: at most 0.25; for VNCY: 6.95; for TPDF: at most 0.25.

As to LIFS, the enrichment ratio was at most 0.25.

Take KGDL: the enrichment ratio is at most 0.25. On to NFEP, for which the enrichment ratio was at most 0.25. As for VPGY, the figure is at most 0.25. Turning to RINT, the enrichment ratio was at most 0.25.

Take GCKF: the enrichment ratio was at most 0.25.

Regarding GLTI, the enrichment ratio came to 11.7. As for WWCL, the figure is at most 0.25; as for CCSL, at most 0.25. As for PRPK, the figure is at most 0.25; as for QPYQ, at most 0.25; as for IWRR, at most 0.25. In the case of TYVK, the enrichment ratio is at most 0.25. With KTKG, the enrichment ratio is at most 0.25. As for QVLI, the figure is at most 0.25. The same measure for AKPN: at most 0.25; for RHKE: at most 0.25; for LSLS: at most 0.25. The same measure for KVKP: at most 0.25; for SGGL: 6.41. As for SSFF, the enrichment ratio was 5.98.

With AWEQ, the enrichment ratio is at most 0.25. The same measure for ASCQ: 4.02; for LNSK: at most 0.25.

On to TDCE, for which the enrichment ratio was at most 0.25. With HLGW, the enrichment ratio is at most 0.25. As for NGVK, the figure is at most 0.25; as for WMCG, at most 0.25.

Consider DVWD, for which the enrichment ratio is at most 0.25.

For the variant TQLF, the enrichment ratio came to 9.47. As for KHYS, the figure is at most 0.25.

TISF: the enrichment ratio amounted to 5.1. The same measure for STCQ: 15.3; for HERR: at most 0.25. The same measure for HDSS: at most 0.25. Take DYHC: the enrichment ratio is at most 0.25. The same measure for LFWA: at most 0.25; for VNDV: at most 0.25; for FMYH: at most 0.25. The same measure for VAEV: at most 0.25; for VCGQ: at most 0.25. As for VCDN, the enrichment ratio was at most 0.25. In the case of IHRH, the enrichment ratio is at most 0.25. The same measure for ITTS: at most 0.25; for VFVV: at most 0.25. For the variant ILYK, the enrichment ratio is at most 0.25. As for FLRY, the figure is at most 0.25; as for GPWV, at most 0.25; as for PMLH, at most 0.25. Turning to TLIM, the enrichment ratio is at most 0.25. As for HKTC, the enrichment ratio is at most 0.25.

Turning to TLHL, the enrichment ratio came out at 0.57. With EISR, the enrichment ratio is 0.602. As for HECW, the figure is at most 0.25; as for ERQV, at most 0.25; as for KAVF, at most 0.25.

As to VDKS, the enrichment ratio is at most 0.25. The same measure for MFFE: at most 0.25; for TYYF: at most 0.25. TYPC: the enrichment ratio is at most 0.25. As for PCMG, the figure is at most 0.25; as for SDIY, 0.384.

On to WFVL, for which the enrichment ratio was at most 0.25.
